# In all, about 220,000 compounds went through this assay and about 16,000 (7.3%) were called active. Inconclusive results, whose numbers are uncertain, are shown with a selection of clear calls. The call rests on the fitted dose curve; in most records, active means well fitted inhibition curve with a large enough effect (not every such curve was filed as active); inconclusive means small, poorly fitted or top-dose-only effect, or another doubt; inactive means no such curve, though single readings can be large or run the other way. Potencies of inconclusive entries are left out as doubtful fits.
# Target: Aldehyde dehydrogenase 1A1 (Homo sapiens) (UniProt P00352)
# Experiment: qHTS Assay for Inhibitors of Aldehyde Dehydrogenase 1 (ALDH1A1)
# Conditions: Purified ALDH1A1, NADH fluorescence, propionaldehyde substrate; series mostly up to 75.3 µM
# Potency means the concentration at half of the fitted maximal effect; tags describe the fitted curve by direction and shape.
# Sequence of UniProt P00352 (P00352 whole entry, looked up): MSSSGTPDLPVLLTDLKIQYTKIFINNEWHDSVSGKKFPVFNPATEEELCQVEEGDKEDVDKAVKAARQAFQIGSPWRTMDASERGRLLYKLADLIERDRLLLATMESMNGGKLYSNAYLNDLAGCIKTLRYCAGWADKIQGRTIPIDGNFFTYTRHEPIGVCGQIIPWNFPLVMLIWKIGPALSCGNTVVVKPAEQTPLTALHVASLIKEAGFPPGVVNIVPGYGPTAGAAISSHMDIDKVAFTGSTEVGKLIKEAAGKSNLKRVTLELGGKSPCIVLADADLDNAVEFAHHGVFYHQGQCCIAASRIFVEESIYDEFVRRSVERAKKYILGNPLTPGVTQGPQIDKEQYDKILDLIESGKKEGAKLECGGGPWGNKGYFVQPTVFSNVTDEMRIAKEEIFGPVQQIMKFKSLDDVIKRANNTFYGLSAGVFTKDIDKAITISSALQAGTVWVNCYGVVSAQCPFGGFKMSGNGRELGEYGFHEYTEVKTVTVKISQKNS
row,Compound,Potency
1,O=c1ccc2ccc(O)c(O)c2o1,"inconclusive [inhibitor, partial curve]"
2,C/C(=C(\C#N)C(=O)NC1CCCCC1)N(C)C,inactive
3,CCOC(=O)CNC(=O)CSc1nnc(-c2ccccc2)c(-c2ccccc2)n1,"inconclusive [inhibitor, single point]"
4,COC(=O)c1sccc1NC(=O)c1cnc2cc(C)nn2c1C,inactive
5,CCOc1cc(NC(=O)c2ccco2)c(OCC)cc1NC(=O)CCC(=O)NCc1cccnc1,"inconclusive [inhibitor, single point]"
6,O=C1C=CC(=O)C(C2=C3C(=O)N(CCc4ccccc4)CC(=O)N3CCC2)=C1,active: 2.24 µM
7,CC1(OC(=O)C2CCCC2)C(=O)C=C2C=C(c3ccsc3)N(CCc3ccccn3)C=C2C1=O (centres undefined),"inconclusive [inhibitor, partial curve]"
8,CC(C)(O)C(=O)NN(C(=O)c1ccccc1)c1ccc2ccccc2c1,"inconclusive [inhibitor, single point]"
9,COC(=O)c1c(NC(=O)c2ccccc2)sc(C(=O)c2ccccc2)c1C,active: 14.1 µM
10,Cc1cnc(C(=O)OCC(=O)NC2CCCCCC2)cn1,inactive
11,COc1ccnc(Oc2ccc(F)cc2)c1C(=O)N/C=N/OCc1cccc(F)c1,"inconclusive [inhibitor, single point]"
12,CCOCCCn1c(SCC(=O)/C(C#N)=C(\C)N)nc2ccccc2c1=O,"inconclusive [inhibitor, single point]"
13,CCOC(=O)CCCNC(=O)COC(=O)c1cccc(F)c1,inactive
14,COc1nccc(C(F)(F)F)c1C(=O)NC(=O)Nc1ccccc1,inactive
15,O=C(COC(=O)c1cccs1)NCc1ccc2c(c1)OCO2,"inconclusive [inhibitor, single point]"
16,Cc1cc2ccccc2c(=O)n1CC(=O)Nc1ccc2c(c1)OCCO2,inactive
17,O=C(NC1CCC(O)CC1)c1cc(-c2ccco2)nc2ccccc12 (centres undefined),"inconclusive [inhibitor, partial curve]"
18,Cc1ccsc1/C=C1\SC(N2CC(C)OC(C)C2)=NC1=O (centres undefined),active: 17.8 µM
19,Cc1c(C(O)CN2CCC(C(N)=O)CC2)c2ccccc2n1C (centres undefined),"inconclusive [inhibitor, single point]"
20,COc1ccc(C(=O)CSc2nnc(-c3ccco3)c(-c3ccco3)n2)cc1,active: 3.98 µM
21,O=S(=O)(c1ccccc1)N1CCC(O)(CSc2ccccc2)CC1,"inconclusive [inhibitor, single point]"
22,CCOc1ccc(NC(=S)NC(=O)c2c(Cl)c(C)nn2C)c([N+](=O)[O-])c1,inactive
23,Cc1ccc(C)c2[nH]c(=O)c(CN(CCN3CCOCC3)Cc3nnnn3CC3CCCO3)cc12 (centres undefined),"inconclusive [inhibitor, partial curve]"
24,COc1cccc(CNC(=O)CCC2CCCN(C(=O)c3cccc4c(C)c(C)[nH]c34)C2)c1 (centres undefined),active: 28.2 µM
25,C/C(=N\O)c1ccc2c3c([nH]c2c1)CCCC3,"inconclusive [inhibitor, partial curve]"

row,Compound,Potency
1,Cn1c(N2CCCCC2)cc(=O)n(C)c1=O,"inconclusive [inhibitor, partial curve, poor fit]"
2,CC(=O)Nc1nnc(SCc2cccc(F)c2)s1,inactive
3,CC(=O)Nc1nonc1NC(=O)c1ccc(C(C)(C)C)cc1,inactive
4,COc1cc(OC)c(C(=O)CCCN2CCCC2)c(OC)c1,inactive
5,CC(=O)NCCc1c[nH]c2ccc(O)cc12,inactive
6,CCn1c2ccccc2c2cc(NC(=O)c3coc(=O)c(Br)c3)ccc21,"inconclusive [inhibitor, single point]"
7,CCCC(=O)Nc1ccc(NC(=S)NC(=O)c2cccs2)cc1,inactive
8,O=C(N1CCN(Cc2ccccc2)CC1)C12CC3CC(CC(C3)C1)C2,active: 6.31 µM
9,O=C(COC(=O)c1ccc([N+](=O)[O-])s1)Nc1ccc(Cl)cn1,"inconclusive [inhibitor, single point]"
10,CN(Cc1cnn(C)c1)C(=O)c1cc(COc2c(F)cccc2F)on1,inactive
11,O=C1NC(c2ccccc2)(C(F)(F)F)C(=O)N1Cc1cccnc1 (centres undefined),inactive
12,CCNc1nc(NC(C)(C)C)nc(N(C#N)CC)n1,"inconclusive [inhibitor, partial curve]"
13,CC(Sc1nc2ccccc2s1)C(=O)c1c(N)n(C)c(=O)n(C)c1=O (centres undefined),"inconclusive [inhibitor, single point]"
14,COc1ccc(/C=N/OCC(=O)NC(c2ccccc2)c2ccccc2)c(OC)c1,"inconclusive [inhibitor, single point]"
15,O=C(NCc1cccs1)c1csc2c1CCCCC2,"inconclusive [inhibitor, partial curve]"
16,CCN(CC)CCn1c(NCc2ccccn2)nc2ccccc21,"inconclusive [inhibitor, single point]"
17,O=C(COC(=O)c1ccccc1Nc1ccccc1)NCc1ccco1,"inconclusive [inhibitor, single point]"
18,C=CCN1C(=O)C(O)(CC(=O)c2ccc(N)cc2)c2ccccc21 (centres undefined),active: 5.62 µM
19,Cc1cc(C)n2nc(SCC(=O)N(C(C)C)C(C)C)nc2n1,"inconclusive [inhibitor, partial curve]"
20,CCC(=O)Nc1cccc(NC(=S)NC(=O)c2ccc(C)cc2)c1,active: 12.6 µM
21,Cc1ccc2[nH]c(=O)c(-c3noc(C(C)C)n3)cc2c1,"inconclusive [inhibitor, single point]"
22,CCN(CC)C(=O)COC(=O)c1cc(-c2ccc(OC)cc2)nc2ccccc12,"inconclusive [inhibitor, single point]"
23,CNC(=O)CSc1nnc(SCCC(=O)O)s1,inactive
24,COc1cc(C(=O)OCC(=O)N2CCCCC2C)cc(NC(=O)c2cccs2)c1OC (centres undefined),"inconclusive [inhibitor, partial curve]"
25,Cn1c(CC2C(=O)Nc3ccc(Br)cc32)nc2ccccc2c1=O (centres undefined),"inconclusive [inhibitor, single point]"

row,Compound,Potency
1,COCCn1c(=S)[nH]c2cc(C(=O)NC(C)C)ccc2c1=O,active: 0.178 µM
2,CC(NC(=O)/C=C/c1cnc2ccccc2n1)C12CC3CC(CC(C3)C1)C2 (centres undefined),inactive
3,C=CCn1c(C)cc(C(=O)CSc2nc3ccccc3c(=O)[nH]2)c1C,"inconclusive [inhibitor, partial curve, poor fit]"
4,Oc1ccccc1-c1nc(/C=C/c2ccccc2)nn1-c1ccccc1,"inconclusive [inhibitor, single point]"
5,CCN1CCn2c3c(c4cc(Cl)ccc42)CCCC31 (centres undefined),"inconclusive [inhibitor, partial curve]"
6,Cc1cccc(C(=O)N2CCN(c3ncnc4c3cnn4-c3ccccc3)CC2)c1,active: 10 µM
7,C=CCC1Cc2c(Br)cccc2C(CC=C)N1 (centres undefined),"inconclusive [inhibitor, single point]"
8,Cc1ccc(OCCNc2cc(N3CCN(CCO)CC3)ccc2[N+](=O)[O-])cc1C,"inconclusive [inhibitor, partial curve]"
9,COc1cccc(/C=N/NC(=S)NC2CC3CCC2C3)c1OC (centres undefined),"inconclusive [inhibitor, full curve]"
10,Cc1cccc(NCc2ccc(O)c3ncccc23)c1C,active: 10 µM
11,CCOC(=O)c1c(-c2ccc(OC)cc2)csc1/N=C/C1C(=O)CCCC1=O,active: 5.01 µM
12,Cc1ccc(C(=O)O/N=C/c2c(N3CCOCC3)n(C)c3ccccc23)cc1,"inconclusive [inhibitor, single point]"
13,Nc1nnc(SC2CC(=O)N(c3ccccc3)C2=O)s1 (centres undefined),active: 3.55 µM
14,COC(=O)c1sccc1NC(=O)CSc1ccccc1NC(=O)CNC(C)C,active: 3.55 µM
15,Cn1c(Cc2cccc3ccccc23)nnc1SCC(=O)N1CCN(c2cccc(Cl)c2)CC1,inactive
16,COc1ccc(-c2csc(NC(=O)c3ccc(OCC(=O)N4CCOCC4)c(OC)c3)n2)cc1,"inconclusive [inhibitor, single point]"
17,O=C(COc1ccccc1Cl)N1CCN(c2ccc([N+](=O)[O-])c(N3CCOCC3)c2)CC1,active: 11.2 µM
18,N#Cc1cc(C(=O)c2cc(F)ccc2O)cn(-c2nccs2)c1=O,"inconclusive [inhibitor, partial curve]"
19,COc1ccc(N2C(=O)C3ON(C4SC(=S)N(C)C4(C)C)C(c4ccc(Cl)cc4)C3C2=O)cc1 (centres undefined),"inconclusive [inhibitor, single point]"
20,CCOC(=O)c1ccc2nc(NC(=O)c3ccco3)sc2c1,"inconclusive [inhibitor, single point]"
21,CCn1cc(C(=O)NCc2ccco2)c(=O)c2cc(S(=O)(=O)N3CCC(C)CC3)ccc21,"inconclusive [inhibitor, partial curve]"
22,Cc1ccc2nc(-c3ccco3)c(Nc3ccccc3)n2c1,"inconclusive [inhibitor, full curve]"
23,O=C(NC1CCN(C(=S)NCc2ccco2)CC1)C12CC3CC(CC(C3)C1)C2,"inconclusive [inhibitor, partial curve]"
24,CN1CCN(c2ncc3nc(-c4cccs4)c(=O)n(CCc4ccccc4)c3n2)CC1,"inconclusive [inhibitor, single point]"
